Some compounds were tested as several samples or in several runs, with calls that do not always agree.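 Negative percent growth values reflect cell death: -40 means 40% of the cells present at the start died, and -100 means all died.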 A number of entries come with more than one value. They are shown here; other results are not. How the source made its calls: active means growth percent below 10; inactive means the rest. The source may hold further records. This drug was run again and again over the years, at the concentration stated with the values; each value is one run. Brackets with × say how often a value occurs here.
System: UO-31 renal
Experiment: NCI-60 one-dose screen, 48 h (100 = growth as untreated, 0 = no growth, -100 = all killed)

With COc1cccc2c1C(=O)c1c(O)c3c(c(O)c1C2=O)C[C@@](O)(C(=O)CO)C[C@@H]3OC1CC(N)C(O)C(C)O1 (stereo not given in full) the growth (0.25 µM, runs of 2015) was “inactive: 78 (2×), 73.1 (2×), 77.1 (2×), 68.6 (3×), 72.7, 72.2, 79.6, 68.3, 69.4, 75.4, 87.3, 58.7, 77.4 (2×), 79.3, 82.6, 78.8 (3×), 78.3, 76.5, 76.6, 79.8 (2×), 76 (2×), 81.7, 65.8, 73.6, 64.4 (2×), 73.5, 67, 72.5, 74.4 (2×), 67.1, 67.3, 59.7, 75.9 (2×), 68.4, 83.4, 69.6, 67.4, 65.9 (2×), 70, 78.1, 87.7, 74.3, 60, 77.6, 67.9, 72.4, 76.9, 79.1, 80.9, 84.2, 78.5, 82.1, 78.6, 83.2, 83.8, 76.8, 85.2, 80.7, 74.9%”, the growth (0.25 µM, runs of 2016) was “inactive: 81.9, 74.8, 67.3, 77.8, 76.3, 61.9 (2×), 65.9 (2×), 73.9, 69.7, 71.8 (2×), 68.3, 72.3, 76.7, 63.1, 73.3, 60.6, 67.4, 69.5 (3×), 72.2 (2×), 63.3, 67.9 (3×), 78.6, 69.6, 80.1, 70.3, 79.3, 61.2, 61.5, 68.2, 65.1, 59.9, 68.8 (2×), 61.4, 68.1, 57.8, 64.6, 64.3, 74.2, 75.9, 65.3, 76.5, 77.5, 67.1, 74.9, 72.1 (2×), 76.4, 76.9, 73.8 (2×), 69.4, 73.5, 76.1, 74.5, 66.1, 71.9, 68, 73.6, 70.8, 74.7, 76, 71.1, 65.8, 57.9, 62.5, 60, 60.2, 64.2%” and the growth (0.25 µM, runs of 2017) was “inactive: 64.1, 64.7, 70.3 (2×), 72.9, 68.4, 73.7, 68, 69.6 (3×), 67.9, 72.3 (2×), 70.2 (4×), 74.5, 73.6, 70.6, 71.8 (2×), 76, 76.6 (2×), 69.3, 71.9 (2×), 74.1, 76.7, 71.2, 65 (2×), 67 (4×), 75.3, 67.7, 63.9, 66.4, 69.7, 76.8, 77.2, 73.8, 75.8, 74.4, 73.2, 62.4, 65.3, 69 (2×), 66.6, 78.2, 70.9, 62.6, 72, 74.8, 64.5, 65.7, 64.8%”. The growth (0.25 µM, runs of 2018) was “inactive: 67.1, 69.6, 64.5, 66.8, 65.9, 64.1, 52.1, 58.8, 65.4 (2×), 64.8, 62.4, 69, 72.9, 75.3, 71.9, 73.8, 72.6, 60.8, 67.6, 56.5, 58.4, 69.7, 68.1, 72.7, 72.5 (2×), 70.6 (2×), 72.3, 73.9 (2×), 71.6, 74.2, 76.3, 75.7, 74.1, 75.1, 75.8, 77.8, 73, 71.8, 68.2 (2×), 68.7, 72.4, 73.3, 76.1, 64.7% (2×)”, the growth (0.25 µM, runs of 2019) was “inactive: 62.1, 65.9, 74.5, 67.6 (4×), 70, 65.1, 71.1, 73.3, 73.5, 61.2, 62.5 (2×), 60.8 (3×), 57.8, 61.8, 63.7, 68.2, 73.2, 71.8, 68, 67.1 (2×), 61.4, 61, 58.1, 62.9, 61.7, 64, 68.6, 63, 64.6, 65, 69, 77.6, 68.8, 66.7, 70.8, 68.1%” and the growth (0.25 µM, runs of 2020) was “inactive: 68.2, 69.4, 71 (2×), 70.8, 70.9, 67.5, 59.7, 63.9, 64.6, 67, 61.8, 64.9, 64.5, 75.1, 65.8, 66.6, 76.4, 76.3, 69.6, 72%”. The growth (0.25 µM, runs of 2021) was “inactive: 73.5, 79.3, 71.2, 63.7, 64.4 (2×), 62.2, 62.9, 62.4, 64.2, 67, 67.1 (3×), 72.4 (2×), 67.4, 67.5, 66.7, 65.1, 64.6 (2×), 65.8, 66.4, 68.8, 69.5, 76.3, 61.1 (2×), 60.5, 70.6, 71, 66, 65, 69, 68.2, 69.4, 68.3, 71.6, 60, 67.3, 68.4, 68.7, 74.1, 63.4, 72.3%”, the growth (0.25 µM, runs of 2022) was “inactive: 44.8, 47.7, 56.8, 67.8, 36.7, 64.8, 53.8, 65.6, 61.7, 69, 59.1, 63.8, 70.2, 62, 67.6, 69.6, 80.4, 81.9, 74.5, 82.6, 73.9, 86.4, 63.3, 65.4%” and the growth (25 µM, runs of 1991) was “active: -37, -56.1, -64.8 (2×), -67.8, -59, -52.5, -65.5, -43.9, -66.1, -54.1, -44.2, -62.6, -68.6, -59.6, -53.3, -44, -64.7, -53.6%”. The growth (25 µM, runs of 1992) was “active: -67.4, -61.1, -40.9, -32.7, -66.4, -66.9, -66.8, -55.5, -50.1, -32, -32.5, -57.1, -44.7, -11.9, -54.8, -64.1, -45.3, -14.9, -29.7, -51.4, -53.9, -60.3 (2×), -48.6, -47.2, -57, -56.8, -12.3, -38.1, -37.8, -10.8, -12.8, -47.5, -37.5, -62.4 (2×), -68.6, -68.7, -64.3, -46.7, -55.9, -18.9, -58.8, -70.3, -20, -56.4, -39.1, -10, -58.6, -61 (2×), -71.6, -67.3, -95.6, -65.3 (2×), -70.2, -72.9, -43.6, -37.1, -43.4, -65.5 (2×), -66.7, -69.9, -75.3, -86.7, -86.2, -95, -68.8, -60, -71.5, -49.7, -1.17, -31.9 (2×), -24.1, -59.7, -55.1, -13.9, -52.9, -45.2, -81, -72.3, -67.8, -61.6, -77, -54.7, -41, -44.9, -61.4, -60.8, -48.7, -75.9, -68.3, -56.9, -62.6, -48.9, -62, -73.1, -65.8, -79.8, -42, -88.6, -53.1, -27.3, -69.7, -65.4, -40.3, -48.1, -26.7, -25.3, -53.6, 2.12, -57.5, -49.8, -5.98, -51.9% and inactive: 19.7%”, the growth (25 µM, runs of 1993) was “active: -39.1, -37.9 (2×), -47.4 (2×), -39.5, -41.2, -61.9, -56.2, -64.5, -53.8, -28.1, -63.4, -48.3, -48.4, -6.22, -18.3, -44.6, -57.1, -29.2, -40.9, -69.2, -59.2, -36.6, -34.1, -61.4, -49.2, -15.7, -50.9, -29.6, -52.2, -25.7, -45.7, -47.1, -67.5, -36.8, -62.5, -53.1, -58.2, -41.4, -34.4, 3.89, -50.1, -21.6, -57.5, -31.9, -37.8, -59%” and the growth (25 µM, runs of 1994) was “active: -27.8, -5.05, -34.6, -52, -31.3, -46.1, -24.9, -32.6, -26.2, -27.7, -4.61, -16, -24.6, -42.8, -2.14, -24.2, -42.3, -34.1, -60.8, 5.79, -31, -20.7, -60.3, -35.1, -50.9, -57.2, -31.1, -49.2, -34.4, -31.8, -47.4, -48.4, -6.41% and inactive: 72.1%”. For the same molecule, the growth (25 µM, runs of 1995) was “active: -43.7, -21, -2.82, -12.2, -37.1, -56.6 (2×), -33.9, -35.1, -36.5, -56.7, -37.3, -38.1, -31.2, -46.7, -59.4, -60, -57.5, -59.8, -56.1, -26.3, -52.2, -45.1, -60.5, -42, -15.8, -32.5, -13.6, -31.4, -38.6, -40.2, -29.8, -62, -61.6, -69.3, -53.9, -55.3, -58.7, -39.3, -55.2, -56.2%”, the growth (25 µM, runs of 1996) was “active: -32.9, -54.5, -54.6, -53.3, -53, -58.5, -47.8, -48.2, -75.7, -34.6, -49.1, -33, -66.5, -25.8, -26.3, -32.1, -48.7, -22.6, -40.4, -40.9, -53.9, -54.7, -23.4, -37.5, -27.6, -8.75, -36.6, -49.2, -37.2, -64.1, -59, -39.8, -20.4, -20.5, -38.1, -29.1, -59.6, -39.6, -43.4 (2×), -16.7, -28.7, -86.8, -47.7, -30.4, -42.6, -50.2, -57.2, -53.4, -52.2, -63.1, -44.5, -37.9, -63.6, -40.7% and inactive: 117%, 12.2%” and the growth (25 µM, runs of 1997) was “active: -30.9, -55.9, -34.1, -34.5, -39.9, -53.9, -42.7, -24, -40.7, -42.1, -34.7, -18.7, -37.8, -43.9, -32, -41.9, -48.4, -40.9, -33.3, -57.4, -56.9, -27.8, -48, -9.28, 1.85, 0.787, 2.59, -31.1, -0.162, 3.11, -6.85, -9.33, -11.2, -5.84, -22.9, -4.46, -5.18, -12.5, -12.8, 0.165, -14.5, -13.1, 9.14, -52% and inactive: 10.4%, 10.2%, 13.6%”.

Source: PubChem BioAssay (NCI)
